Consider 88 sequences from the supplement of paper PMC11417369.

± gives the standard deviation of the averaged measurements. The list shows a part of the results.

This experiment relates to PfAP2-EXP AP2 domain (GST-tagged). The experiment in a line: gcPBM binding intensity (ln(normalized median fluorescence intensity)); higher = stronger DNA binding. Summed up: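 An Agilent 4 × 180k array carrying primer-extended double-stranded 36-bp intergenic genomic probes and negative controls received GST-tagged P. falciparum DNA-binding domains expressed in E. coli, about 25 μg on average, for 1 h. The binding buffer contained 1× PBS, 1% milk, 0.2 mg/ml BSA, 0.5% salmon testes DNA and 0.03% Triton X-100. Binding intensity is the top Masliner-normalised natural-log median intensity across replicate spots of either probe orientation, read after Alexa488 anti-GST antibody staining and a 488 nm scan.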
As to “TTTATAATAAAAAATACATGCAGTTATATATAATAA [TGCATGCA_site654]”, the “gcPBM binding intensity (ln)” value was found to be 9.14 ± 0.23.
In the case of “ATAATGTGTTTGGTATTCTTGATAGATAGTTTTGTG [CACACA_negctrl_site68]” it was 8.47 ± 0.46.
As for “TATATATAAATAAACACACACAAATATAATAAAAAA [CACACA_site3526]”, the “gcPBM binding intensity (ln)” value was determined as 8.85 ± 0.28.
As to “ATCCGTGTCTGAAATACACACATGACAATGTGAATG [CACACA_site6556]”, the “gcPBM binding intensity (ln)” value is 8.39 ± 0.37.
Take “TATTTTACATAAAAGAAAAAAAAAAAAAAAAAAAAA [CACACA_negctrl_site1460]”: the “gcPBM binding intensity (ln)” value is 7.87 ± 0.49.
For the sequence “TATAAAAAAATAATAAAATAATAAAATATATAAATA [TGCATGCA_negctrl_site394]”, the “gcPBM binding intensity (ln)” value was 8.27 ± 0.28.
The value for “ATTCTATTATCCTTTGCACACAAAATAAATGAAAAA [CACACA_site3030]” was 8.79 ± 0.15; that for “TTTTAAAAGGTAAAATGTACATATATAATATATACA [XGTACX_site1222]” was 8.59 ± 0.53.
In the case of “TATATATTATATATTTGTACATATATATAAAAACTT [XGTACX_site449]” it was 8.34 ± 0.25; in that of “CCTTCCTTGAATTTTACATGCAAAAAATTATAAAAC [TGCATGCA_site663]”, 9.06 ± 0.35.
Regarding “ATTTTTATTTTTTTTGTGCACATTTTCATTTTCTAT [GTGCAC_site9580]”, the “gcPBM binding intensity (ln)” value was determined as 9.23 ± 0.34.
The value for “TTATTAAAATATACATTTGAAAGTAATCTTATTTAA [XGTACX_negctrl_site431]” was 7.76 ± 0.45; that for “TTTTTTCAATATTATATCCAAAAATATTTGTAAATA [TGCATGCA_negctrl_site596]” was 7.99 ± 0.4.
In the case of “ATAGTATATCAAAATTTGTAAATCATTCTCAATAAA [CACACA_negctrl_site430]” it was 8.12 ± 0.29; in that of “AAAAAAAAAATTTTCGTGCACATAAGAAAATTTAAA [GTGCAC_site9788]”, 8.78 ± 0.18; in that of “CATACATACAAACACACACACATATAAATACATACA [CACACA_site4625]”, 8.69 ± 0.47.
On to “AAAAAAAAAAAAAAAACACACATATCTGTATTTATA [CACACA_site5760]”, for which the “gcPBM binding intensity (ln)” value came out at 8.54 ± 0.25.
In the case of ACATTGTTGGTGTTAGTGCATTGGTAAATATTATAT it was 8.82 ± 0.31; in that of “TATTTAAAGATATATACACACATTTGATATTATTAT [CACACA_site6509]”, 8.28 ± 0.38.
The value for “CACACGTAAAAGTATAATATAAAAAAGGTATACACT [CACACA_negctrl_site127]” was 8.66 ± 0.4; that for “ACCTACATACATATGTGTACTTATTTGTATTCACTG [XGTACX_site7124]” was 8.9 ± 0.4; that for “TTTATAAACAAATGAACACACAAACATATTTATATA [CACACA_site7478]” was 8.62 ± 0.38.
Turning to “ATAATATATGAAAAAACGATTTTTTCATTTTAAATA [XGTACX_negctrl_site146]”, the “gcPBM binding intensity (ln)” value came to 8.25 ± 0.34.
Regarding “TTTTAGCTATTTTAATATAATGAAGCAAAAAATAAA [TGCATGCA_negctrl_site576]”, the “gcPBM binding intensity (ln)” value is 8.49 ± 0.25.
The value for “ATAATAAATTCTACGCGTACAAAACCATGAACATTA [XGTACX_site7505]” was 8.7 ± 0.42.
In the case of “CTTTCAAAATTATTTATAGTATCTCATATTTTAGTA [XGTACX_negctrl_site72]” it was 8.03 ± 0.55; in that of “ACACATATGTATATATGTACTTATATATATATATAT [XGTACX_site8632]”, 10 ± 0.62; in that of “ATCCTTTATAAATAAGTGCATATAAAAAATAATATT [GTGCAC_site9759]”, 8.52 ± 0.11.
In the case of “TTTATTAATAAAAAGGTGCAATCAGGAAAAATTATC [GTGCAC_site9626]” it was 9.19 ± 0.099; in that of “AATATATATATATTATGTACACATAGAAATATATTA [XGTACX_site3874]”, 8.45 ± 0.39; in that of “TCATATTCCAAAAAAAAAAAAAAAAAAAAAAAAATA [CACACA_negctrl_site1293]”, 7.73 ± 0.57.
Consider AATTATATATAAAAAGTGCAAAACGATAATTCATCA, for which the “gcPBM binding intensity (ln)” value is 9.16 ± 0.33.
The value for “ATGTATTACTTAAATATATGAAACATATTACTTTTA [CACACA_negctrl_site496]” was 7.97 ± 0.38; that for “GTTCTTTCAAGTTATACACACCAAAAAAAAAAAAAA [CACACA_site7435]” was 8.38 ± 0.42.
In the case of “AATATCATCAAACGCACACATACATAAATATATTAT [CACACA_site2174]” it was 8.64 ± 0.4; in that of “AACGGGGCCAAGAAATATAAATAATCAAAACAAAAA [XGTACX_negctrl_site320]”, 8.7 ± 0.54.
“TGTGCACGCATATACACACACAAATACAATGATAAA [CACACA_site6656]”: the “gcPBM binding intensity (ln)” value worked out at 8.65 ± 0.36.
The value for “TGTTATATTTGTGCGTGTACACATTTGAAAAAATAT [XGTACX_site3796]” was 8.8 ± 0.18; that for “TTTCTTTATTTTTTTTTTTTTTTTTTTCCTTTTTTT [TGCATGCA_negctrl_site231]” was 7.76 ± 0.078.
The value for “AAATGAATAAAATTTATTTATAAAAGAAAAATCACA [GTGCAC_negctrl_site225]” was 8.43 ± 0.33; that for “AGTGTGTGTGCGTATAGTACATATACATATATACAC [XGTACX_site6882]” was 8.7 ± 0.23; that for “ATAATACAAAATACATGTACAAATATTTTTCATATT [XGTACX_site1721]” was 8.48 ± 0.35.
As to “TAGTACACACAAAATACATGCGGGGTTTAATATTTA [TGCATGCA_site576]”, the “gcPBM binding intensity (ln)” value amounted to 8.78 ± 0.45.
The value for “AATTCTTTCATATATTGTACGTATTCCCATAAAATA [XGTACX_site5923]” was 9.03 ± 0.3; that for “TTTAAATATTTTAACACACTCATATTTAGGTTACAA [CACACA_site5685]” was 8.43 ± 0.42.
The value for “TCCATATATATTATGTGTACATATTATATATATAAA [XGTACX_site7525]” was 8.36 ± 0.042; that for “TTTACATATTTATATACACACTTTTGCGTGTCTGGT [CACACA_site4750]” was 8.49 ± 0.43.
As for “TAATCCATAAGAAGCACACACATATAAATATATTTT [CACACA_site6774]”, the “gcPBM binding intensity (ln)” value was found to be 8.53 ± 0.4.
Regarding “ATATATAAAATATATTGTACATTAACATATATATTT [XGTACX_site2055]”, the “gcPBM binding intensity (ln)” value came out at 8.38 ± 0.42.
As for “GTAATATTATATAGTTGTACTTTTTTTTTATTATAT [XGTACX_site483]”, the “gcPBM binding intensity (ln)” value came out at 8.77 ± 0.46.
The value for ATATATAAATAAATAGTGCATTTTAATATTTAACGT was 8.73 ± 0.14; that for “AAACTTGACGGACACACACACACATATATAAAAAAA [CACACA_site4577]” was 8.51 ± 0.38.
For the sequence “AGTAAAAGAAAGCACACACACATGTATATATGTATG [CACACA_site3858]”, the “gcPBM binding intensity (ln)” value is 8.51 ± 0.47.
The value for “CAATATAAAAAACACACGCACACAAAAAAAAAAAAA [CACACA_site3521]” was 8.39 ± 0.49; that for “TCTTTATATATATATATATGTGTGAATGTTAAGTAT [XGTACX_negctrl_site135]” was 8.74 ± 0.33; that for “ATTTTTTTTTTTTCCTTACACACATATTTCATTTTA [CACACA_site748]” was 8.79 ± 0.64.
In the case of ATATATATATATATAGTGCATAATGTTTTAATAGAT it was 10.1 ± 0.26; in that of “AAATTGTCTGCATATAGTACATAAATATATTAATAT [XGTACX_site4557]”, 8.69 ± 0.35.
“CTATTAAAAAAATTATGTACACAACGTCTCTATATA [XGTACX_site4813]”: the “gcPBM binding intensity (ln)” value turned out to be 8.47 ± 0.35.
The value for “TACATTTTTATTTTTACACACATATATATATATATA [CACACA_site1021]” was 10.1 ± 0.31; that for “AAGTATTATTATAAGACACACATGTATATAAGTATA [CACACA_site1479]” was 8.58 ± 0.45; that for “TTAAGTATTTTACGTACACACTTATAAATGTACAGG [CACACA_site6012]” was 8.51 ± 0.32.
With “TATTATTTTATGAGACATAAAAAAAAAAAAAAAAAA [CACACA_negctrl_site1534]”, the “gcPBM binding intensity (ln)” value stood at 8.02 ± 0.31.
For “GAGTTTATTCTTTTTATACACACCTTATTTGATTAA [CACACA_site735]”, the “gcPBM binding intensity (ln)” value was determined as 8.72 ± 0.35.
With “TATAATATATTTATATGTACTTATTTATTTATATAT [XGTACX_site6519]”, the “gcPBM binding intensity (ln)” value is 8.39 ± 0.34.
As for “TTGCCATTAATTTATACACACACATTTTAATTTTTT [CACACA_site8150]”, the “gcPBM binding intensity (ln)” value was determined as 8.73 ± 0.34.
For the sequence “TTGTCATTTATAAAATGTACGTGTGTATATATTTAA [XGTACX_site5000]”, the “gcPBM binding intensity (ln)” value is 8.49 ± 0.35.
The value for “TCAATAGTTACTAGTACATGCAAAAATAAACCTATA [TGCATGCA_site85]” was 9.12 ± 0.64; that for “CAAATATATATGTTCACACATATAATTATTGTGAAA [CACACA_site4190]” was 8.22 ± 0.38; that for “AAGAAAATAAAATAAAAAAAAAAATAAAAAAAATAA [TGCATGCA_negctrl_site516]” was 7.91 ± 0.91.
The value for “TTATATTTATGATACACACACGTATATTCACATACA [CACACA_site6354]” was 8.6 ± 0.42; that for “AACATTTTTAAATATATAAAAATATATATATATATA [XGTACX_negctrl_site551]” was 10.1 ± 0.35; that for “TTTTAAAGCATATCATATAAAGAACATGACATAGGA [CACACA_negctrl_site630]” was 8.61 ± 0.33.
Consider “GTATGTTTAATTTTAGTGCAATTATAAATATTTTAA [GTGCAC_site9531]”, for which the “gcPBM binding intensity (ln)” value came out at 8.62 ± 0.18.
Regarding “TTATTATTTAACATGTGGACACAAAAATTTAAGGGT [XGTACX_site4638]”, the “gcPBM binding intensity (ln)” value stood at 8.8 ± 0.26.
In the case of “TTAACTTTTATATAGTGTACAAATAAATGCATACAG [XGTACX_site5958]” it was 8.73 ± 0.3.
The value for “ATCACTAACATGTGTTGTACATAAAATTTGTTTGTT [XGTACX_site2207]” was 8.52 ± 0.33; that for “AAAAAACAAAAACACACACACACATATATATATATA [CACACA_site3654]” was 9.94 ± 0.36.
The value for “TATTATGTATAAAGAAGTACTTTTTTTTTTTTTTTC [XGTACX_site201]” was 8.15 ± 0.37; that for “TGAACACAGACAAATACACACAAAAAAAATAAATAA [CACACA_site4298]” was 8.65 ± 0.53; that for “TCTACTACTTAATGGAGTACTAGCTTCATAATATTA [XGTACX_site7030]” was 8.13 ± 0.33.
For the sequence “TGCAAATTTAACAAAAAAAAAAAAAAAAAAAAAAAA [GTGCAC_negctrl_site64]”, the “gcPBM binding intensity (ln)” value was 7.88 ± 0.45.
In the case of “GATTATTTAAAATATACATGCGCGCACATATGCATA [TGCATGCA_site630]”, the “gcPBM binding intensity (ln)” value was determined as 9.09 ± 0.19.
With “TGCATTTTCCTATTTGCATGCAATTAAAATATAGAA [TGCATGCA_site862]”, the “gcPBM binding intensity (ln)” value came out at 10.2 ± 0.24.
The value for “AACATATATACAGTAACACACACAAAAAAATATGAA [CACACA_site9323]” was 8.87 ± 0.46.
For the sequence ATGTTTTAATGAGGTTTGCACTATATTTTAATGAAC, the “gcPBM binding intensity (ln)” value turned out to be 8.8 ± 0.42.
Turning to “TAGGAGCCGAAACACACACACAAAAAAAAAAAAAAA [CACACA_site1731]”, the “gcPBM binding intensity (ln)” value is 8.05 ± 0.46.
In the case of “CATATATATAAATACACACACACACCCCTTATAATT [CACACA_site4064]” it was 9.3 ± 0.81.
